Source: the RNAGym collection of RNA variant scans (doi:10.1073/pnas.2313332121)
Variants at the background level are over-represented here.

B1: TPR 5TU (parent)
chain: GGAUCUUCUCGAUCUAACAAAAAAGACAAAUCUGCCACAAAGCUUGAGAGCAUCUUCGGAUGCAGAGGCGGCAGCCUUCGGUGGCGCGAUAGCGCCAACGUUCUCAACUAUGACACGCAAAACGCGUGCUCCGUUGAAUGGAGUUUAUCAUG

Variants of: B1
Test: polymerase ribozyme fitness, log enrichment relative to wild type (log ratio); higher = more active; in vitro selection for triplet polymerase activity
Summary of the method: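 The heterodimeric triplet polymerase ribozyme's subunits were each mutagenized into PCR-built libraries and transcribed. Every library was selected once, in triplicate, by annealing with a biotinylated primer, the partner subunit and triplets, incubating frozen at −7 °C, gel-excising extended constructs, capturing on streptavidin beads and running RT-PCR. Input and output libraries were Illumina-sequenced, with genotypes kept only at ≥10 input reads and ≥1 read per output. Fitness, from inverse-variance-weighted replicate averages, is the base-2 logarithm of genotype enrichment over wild-type enrichment.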

Polymerase ribozyme fitness (log ratio), ≤ -4.2:
A37C A64U C116U
A39G A40C C79U A97U G100U A138C U144G
C36U A47C U56A C93G
A39C G59U C93A A107G G126U
A40C U61C C76U G84U C96G U109C
A37U G42C G86C A113C U135A
A41C C95A C103G U144A
C38A C79G U82G C95A A106U G143C
A37C U44A C51A C54U U78A G92U C105U A106U A110U U111G G140A
C38A G59A G92A U134G
A39U U82C C87U C96G G117U U134A
A39U C43G C54G U77G
A41C A60C U90G C103A C116U C129A G143C
A40C A49U C75G U78G G94C C99U
C36U C85U U102G C108U G136C
C36U U44A G46C C57A C87U
A39G U45A C76A G86C G94U
A40U G42U C54U G86A U90G A97G G117C U146A A147C
A37C C57G G62C C87A
A39U C79U C87U C93A
A39C A66C A73C C85G G86C C95A
A40C U77C G88U C99U A115U A150C
C38U U55A C87A C125G
C38U U61A A91C C93U A122G A147U
C38U U55A C79U G86A G88C C105A U109G A121C
A40G A106G C116G C118G U144C
A40G G81C U90C C103A G117C
A40C U45A A97G A107U C114A U127G U134C
A40G A106G C118G U134G
A37C C93A U139C
C38G U53A A91U C95G A110C A121G U135C A137U
A39C G83C C105G A110G G133A
A39C G71U U78G U82A C105G A113U
C36U C63U G83C G92A C99U
A37C C79A C114A A138C
C36U C57A C69A G117U G140A A150G
A41C C43U C87G G100A U127G G143A
A40U U90G A106G
A37U G50C U53A G59U C63U G86A G117C C129U
A39C G50A G70C G88C U145G
A39G U82G A91C C118U U145C
C38A G48A G50C C57A G81A U151G
A40C C57U A73U G83U A98U A115U A138U
C36U A47C U56A C93G U145G
A40G U148G
C38A A47U C76G
A37C A39C
A40G C72G C93A U102C A110U
A39C G59U G68A G86U U130A
A41C G86A C99G
A41C G58U U77C C93G
A40C A73G A91U G94A C95U C108A U111A C125G
A39C G88C G92C A113C
A41C G59U C85A C93U
A37C A49U C63G A66G G88U
A37C G84A C87U G92U U102C
A39G G50C C75G G124A
A37C C72A C87G
C38A C85A C131G U134A C149A U151G
A40U C93U G133A
A40U U56A A64C A73C A89U A106G U109C U135G
A37U C79G C108U G141C
C38G C75G C93A
A39C C99U U111G
A40C C57G G58C C87G A106G C114U
C38U A66G C93A
A37C A49C C63G A66U
A37G C75U C76A G141A
C36U C57U C85U U102A C108U
A37C G71A C85G G100A C116G
A37C U45G G65C G140A U148G
A39G U53A C85A C125A C132G
C38G G152C
A37G G74U C79A C85G
A39G U55A G74C U82C G92A U102G C105G U151G
A39U G88A G94C A150U
C38U C95U C105A G128C
A39U G46C A52G A89G C96U G152U
A40U U56A G74C C96U C103A A138G
A41C G58A G70C C76U A91C
C38U C69U C75G
A37C C57A U82C C87G G117A U130C
A37C C54U U56A G67C
A39U C57U G67C C108U
A39C U101A A121U
A40G U61C C87A A89G
C36U U44C C76G C85A G112C C114U A120C G133C
A39U G71C G88A C103G U135C A150C U151A
C38U U90C U102G C116G
A37C A49G C93A G133U
A40C G86A G88A
A41C G74A C79A A97C A119C
C38U G59A G67C G92U C99G U101G C116U G143U
A39U G50C U56A G59C U61G A106U
C36U C79A C105U
A39G U61A G70C C108U U146G U148C
A37C G59A G92A C93A
C36U G50C C85U U109A
A39G U61G G70C C79U G88C C108U U109G A115U A120G U146G
A37G A98U G128U
A40C C85G C103A U135C
A39G C87A G88U U101C A107G
A39G A49U C93U G128A C129U G141A G143C U144A
A37G U53G G74C U148G
C38U G58A C93G U102G G143A
A40C A52U C54G U55A C87G C93U
A39U G46U U90G G133U
A40U A64G G86A C105A
A40G G50U C132G
A40G G71A C131G
A39C C75G C76U C85U G92U C93U C99U G126A
A39U A41U G80U C87A C99A A121G
A39G C54U G83U G133A
C36U G71A A73G C85U
A37G G59C G88U U90C A107U G136U
C38A A47C U77C C85G C129A G141U U146G
C38U A41G U56A G84U U90A C108A
A39U U45G G136C A137U
A37C C85G C95A U130G
C38A G42U U55A C93U U111C G152C
A39C U77A G84A C95U A120U
C38U G68C A89U C108G C118A C125U G136C A150U
A37G C75G U130C C132U
A41C A60G C85G G88C
C38U U56A G65A U78A C87U C95U
C38U G42A U82C C108G U111A
A37G U56A C85U C105A
A37C A107C G152A
A40C C75G C85U C87A A89G C99A G141C G143A U146G
A37G C43A C51U C103G C125A
A40C A52C C54U G70U C87A A98U C105G U109G
A40G U82A G94C U134A U151A
A39U U56A G88A
A40C G59U A64C G71A
A40C A66C C103A U135A
A40U C95U A115G C118U
A39G C108U U109G
A39U A47C C87A
A41C G86A A107C G136C U139G
C38U G58C U90G U109C U144A U146A
A40C U61G G80C C96G A107G
A41C G74A G84U C99G A119U U144C
C38U G50C C95A G112A
A37G G83U U102G C116U G117C U135C U145G G152U
C38A C93A C105G
A40C C87G A147U
A37C G84A C93U U101A
A39C A49C C54A C57U G58C G88A A147C
A39C G62C G86U G100U G136C U151C
C38U U44A A52C C96G
A40G G67A C72U C96A U151A
A40U G58U A73G G92C C114U A138G G141A G152U
C38A C87U C129U G141U
A40U A73U C85G G86A A119C
A40C C85A C108U G126A
A37C G42C A91U C95U A110U U135A A150U
A37U C63A C69A C76G
A39U A89G U127C U144A A150G
A37G G42A C99U G133U U135G U144A
A39U A40G U77C U82A A150C
A39U G58U G94A A97G G133A
A37G A91G U134G
A37G A52C U102C G141A
C38U A91C A98U G100A
A40U G94C C105G A137C A138U U146A
A40C G74U G84U A120G A122G
A37U C38U C93A U139G
